{
  "source": "the supplement of paper PMC11417369",
  "note": "This is one part of the list.",
  "data": [
    {"system": "PF3D7_0420300 AP2 domain 1 (GST-tagged)", "assay": "gcPBM binding intensity (ln(normalized median fluorescence intensity)); higher = stronger DNA binding", "outline": "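An Agilent 4 × 180k array of primer-extended double-stranded 36-bp intergenic genomic probes, with negative controls, was incubated for 1 h with GST-tagged P. falciparum DNA-binding domains expressed in E. coli. Alexa488 anti-GST antibody detected bound protein, scanned at 488 nm. Binding intensity is the highest Masliner-normalised natural-log median intensity across replicate spots of either probe orientation.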", "values": [
      {"sequence": "TTCTTCAATAATAAGTGTACATATGCATACATTATA [XGTACX_site1502]", "gcPBM binding intensity (ln)": 9.17},
      {"sequence": "AATTAAAAAATTTATGCACACTTTAAAAAAAAAAAA [CACACA_site5962]", "gcPBM binding intensity (ln)": 9.06},
      {"sequence": "ATAATAAAATAAGAAGCACACAAATATTATATATAA [CACACA_site9319]", "gcPBM binding intensity (ln)": 9.76},
      {"sequence": "AAAAAAAATAAAAATAGTACTCAAAAAATTATGAAT [XGTACX_site3073]", "gcPBM binding intensity (ln)": 9.19},
      {"sequence": "ATATTAATTTCTTATGCATGTTCTACCAAATTGTAT [TGCATGCA_site38]", "gcPBM binding intensity (ln)": 9.51},
      {"sequence": "GATATGATATGATATGCATGTAACAAATTTTTTTAA [TGCATGCA_site268]", "gcPBM binding intensity (ln)": 9.02},
      {"sequence": "AAAAAAAAATATATATATATATATATATTTATGTAT [GTGCAC_negctrl_site483]", "gcPBM binding intensity (ln)": 9.04},
      {"sequence": "TATATATAATATACATGTACAAATGTATTTAAAAAT [XGTACX_site6090]", "gcPBM binding intensity (ln)": 9.31},
      {"sequence": "CAAAAAAAGAAAGCTACACACATTTATGTGCTATAT [CACACA_site2777]", "gcPBM binding intensity (ln)": 9.45},
      {"sequence": "AATTAAAAATTCAAGTGTACTTTTATATTATTATAC [XGTACX_site4106]", "gcPBM binding intensity (ln)": 9.12},
      {"sequence": "ATTATAATAGTTAAATGTACACACTAACTACATGGA [XGTACX_site6918]", "gcPBM binding intensity (ln)": 9.36},
      {"sequence": "ATTCGGATATATATCACACATAACTTTAATAATATA [CACACA_site5720]", "gcPBM binding intensity (ln)": 9.21},
      {"sequence": "TAAATAGCCAAACGCACACCCACAAAAAAAAAAAAA [CACACA_site1554]", "gcPBM binding intensity (ln)": 9.31},
      {"sequence": "CTCAACATATACGTAACACACATATATATATATATA [CACACA_site3838]", "gcPBM binding intensity (ln)": 9.41},
      {"sequence": "TCTACAAGGCTTGATCGTACAATTTGAATGTATTTG [XGTACX_site7698]", "gcPBM binding intensity (ln)": 9.24},
      {"sequence": "AGCATAAACAATTTTTGAAAAAATATACACTCATAG [CACACA_negctrl_site890]", "gcPBM binding intensity (ln)": 9.16},
      {"sequence": "TATATATATATATACACACACACAAAAAAAAAAAAA [CACACA_site1505]", "gcPBM binding intensity (ln)": 10.1},
      {"sequence": "AAAATAACGAGTCAAACACACATATATATATATATA [CACACA_site2039]", "gcPBM binding intensity (ln)": 9.47},
      {"sequence": "TATGCAAGGAACCACACACACACACCCAAATGTATA [CACACA_site750]", "gcPBM binding intensity (ln)": 10.1},
      {"sequence": "TATCTCTCTTTCTGCTGTACATAAAAATTATATAAT [XGTACX_site5961]", "gcPBM binding intensity (ln)": 9.37},
      {"sequence": "AACATATTTTTAAATACACACACATAAAAAAAAAAA [CACACA_site8279]", "gcPBM binding intensity (ln)": 9.85},
      {"sequence": "TAATATTTATTCTATTGTACATAAAATATATATATA [XGTACX_site7132]", "gcPBM binding intensity (ln)": 9.06},
      {"sequence": "GGAAAGACATTACACAGTACCCAGGAAATCTACGGA [XGTACX_site2002]", "gcPBM binding intensity (ln)": 9.39},
      {"sequence": "ATTATATATGTATAAATATGCTATATATATATATAT [GTGCAC_negctrl_site430]", "gcPBM binding intensity (ln)": 9.08}
    ]}
  ]
}
